Measured values as given in article PMC4336329 (PLoS ONE, 2015).
About 2,200 (0.71%) of roughly 310,000 compounds showed an effect of 50% or more. Effects have a minus sign here. The list shows a part of the results.

molecular target: human ether-à-go-go-related gene (hERG) potassium channel (human, UniProt Q12809); assay: primary screen, population patch clamp on CHO cells stably expressing hERG
Sequence (Q12809 whole entry, looked up): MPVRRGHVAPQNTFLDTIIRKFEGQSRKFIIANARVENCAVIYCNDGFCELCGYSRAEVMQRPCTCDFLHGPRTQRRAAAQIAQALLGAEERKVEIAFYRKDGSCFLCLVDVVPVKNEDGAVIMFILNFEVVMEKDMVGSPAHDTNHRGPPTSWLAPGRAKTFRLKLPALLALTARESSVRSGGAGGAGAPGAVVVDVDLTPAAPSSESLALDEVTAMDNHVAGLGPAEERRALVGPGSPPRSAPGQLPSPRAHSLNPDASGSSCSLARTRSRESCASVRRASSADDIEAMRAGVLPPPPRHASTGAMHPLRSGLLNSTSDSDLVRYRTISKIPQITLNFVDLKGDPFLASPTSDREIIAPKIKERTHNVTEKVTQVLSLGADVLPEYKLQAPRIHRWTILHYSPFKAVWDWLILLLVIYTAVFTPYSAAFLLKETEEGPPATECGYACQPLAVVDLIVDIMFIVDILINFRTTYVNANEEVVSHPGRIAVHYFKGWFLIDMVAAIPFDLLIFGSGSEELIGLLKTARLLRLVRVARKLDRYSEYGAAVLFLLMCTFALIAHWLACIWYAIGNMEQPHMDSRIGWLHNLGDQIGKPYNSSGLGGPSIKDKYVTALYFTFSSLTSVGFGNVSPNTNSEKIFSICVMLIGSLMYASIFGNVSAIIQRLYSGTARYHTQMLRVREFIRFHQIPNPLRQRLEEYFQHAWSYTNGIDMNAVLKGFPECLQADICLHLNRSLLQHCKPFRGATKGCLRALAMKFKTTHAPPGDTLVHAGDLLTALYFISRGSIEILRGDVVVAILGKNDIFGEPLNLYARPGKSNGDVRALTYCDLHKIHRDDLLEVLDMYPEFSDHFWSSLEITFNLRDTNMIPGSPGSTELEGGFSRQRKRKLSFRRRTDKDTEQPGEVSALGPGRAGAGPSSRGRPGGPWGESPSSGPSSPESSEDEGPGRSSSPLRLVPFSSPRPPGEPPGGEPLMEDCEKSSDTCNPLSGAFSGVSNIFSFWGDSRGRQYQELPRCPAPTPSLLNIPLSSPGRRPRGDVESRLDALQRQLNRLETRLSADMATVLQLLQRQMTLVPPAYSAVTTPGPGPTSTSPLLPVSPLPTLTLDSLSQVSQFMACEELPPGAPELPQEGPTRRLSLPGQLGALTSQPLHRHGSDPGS

Row | Compound | hERG current change (%, negative = inhibition) at 1uM [%]
1 | Cc1ccc2nc(CSc3nnc(Nc4ccccc4F)s3)cc(=O)n2c1 | -7.74
2 | NC(=O)C1(N2CCCCC2)CCN(S(=O)(=O)c2ccc(Cl)s2)CC1 | 5.38
3 | COc1cccc(C(C2=C(O)CC(C)(C)CC2=O)C2C(=O)CC(C)(C)CC2=O)c1 (centres unmarked) | 22.1
4 | CC(C)N(C(=O)Cn1c(-c2cccnc2)ccc(C#N)c1=O)C(C)C | 9.08
5 | COc1ccc(NC(=S)NNC(=O)c2ccccc2OC(F)F)cc1 | -1.63
6 | O=C1C2C3C=CC(C3)C2C(=O)N1/N=C/c1cc(Br)cc([N+](=O)[O-])c1O (centres unmarked) | 8.33
7 | CC1(C)CC(=O)c2sc(N3CCCCC3)nc2C1 | 13
8 | Cc1ccc(S(=O)(=O)N2CCN(C(=O)c3ccc(Cl)nc3)CC2)cc1 | 6.65
9 | Cc1ccc(SC2=C(C(=O)O)CCCC2)cc1 | 7.3
10 | CCSc1nnc(NC(=O)c2nn(C(C)C)c(=O)c3ccccc23)s1 | -3.68
11 | COc1ccc(N(CC(=O)Nc2cc(OC)ccc2OC)S(=O)(=O)c2c(C)noc2C)cc1 | 5.69
12 | Cc1ccc(-c2csc3nc(C)n(-n4cccc4)c(=O)c23)o1 | 4.98
13 | CCCC(=O)N1CCN(c2nnc(-c3ccccc3)c3ccccc23)CC1 | 1.58
14 | C=CCn1c(CCCNC(=O)CCC)nc2ccccc21 | 6.24
15 | COC(=O)c1ccc(COc2ccc(/C=N/O)cc2)o1 | 9.76
16 | COc1cccc(-c2nc(CS(=O)CC(=O)NCCc3ccc(C)cc3)c(C)o2)c1 (centres unmarked) | 10.8
17 | CCCCCN(C(=O)CCC(=O)OCC(=O)N(CC#N)c1ccccc1)c1c(N)n(CCCC)c(=O)[nH]c1=O | 3.81
18 | Cc1ccc(OCCc2csc(N)n2)cc1 | 10.9
19 | COc1ccccc1-c1cc(C(=O)NC(C)C)no1 | -7.94
20 | Cn1c(=O)cc(Cl)[nH]c1=O | 10.9
21 | CCn1c(SCC(=O)Nc2nc3c(s2)CCCC3)nnc1-c1ccccc1 | -1.1
22 | Cc1cccc(NC(=O)c2ccc(CN3CCN(Cc4ccccc4)CC3)cc2)c1 | -40.4
23 | O=C(CCc1ccccc1)Nc1ccc2c(c1)OCO2 | 16.4

Row | Compound | hERG current change (%, negative = inhibition) at 1uM [%]
24 | Cc1ccc(CN(C)C(=O)COC(=O)CSc2cc(C)c3ccccc3n2)cc1 | 7.8
25 | CC1(C)Cc2ccccc2-c2nnc(SCC(=O)N3CCc4ccccc43)n21 | 10.9
26 | C=CCn1c(-c2oc3nc(-c4ccccc4)cc(-c4ccccc4)c3c2N)n[nH]c1=S | -3.13
27 | COc1ccc(NC(=O)Cc2nnc(SCC(=O)NC3=NCCS3)n2C)cc1 | 2.98
28 | CCn1c(SCC(=O)NCc2ccco2)nnc1-c1c[nH]c2ccccc12 | 13.1
29 | C[N+]1(C)[C@@H]2CC[C@H]1CC(OC(=O)C(CO)c1ccccc1)C2.O=[N+]([O-])[O-] (some centres unmarked) | 12.7
30 | CC12CCC(C/C1=N\N=C1\NC(=O)/C(=C\c3cccc(Br)c3)S1)C2(C)C (centres unmarked) | 6.04
31 | Cc1cc(C)n(S(=O)(=O)/C=C/c2ccccc2)n1 | 7.16
32 | Cc1c(OCC(=O)N2CCC[C@@H]2C(=O)O)ccc2c3c(c(=O)oc12)CCC3 | 11.3
33 | COc1ccc(CN2CCN(C3CCSCC3)CC2CCO)c(C)c1C (centres unmarked) | -9
34 | Cc1ccc(-c2nnnn2-c2ccccc2C(=O)O)cc1 | 15.7
35 | CCCc1c(C(=O)Nc2ccc(N3CCOCC3)cc2)cnn1-c1ccccc1 | 7.07
36 | Cc1ccc(CSc2nc3ccccc3c(=O)[nH]2)cc1 | 3.74
37 | COc1ccc(N2CCN(C(=O)C(Cc3ccccc3)n3cccc3)CC2)cc1 (centres unmarked) | 8.78
38 | O=C(CCC(=O)OCc1cccc([N+](=O)[O-])c1)Nc1ccccc1Cl | 2.86
39 | CCOc1ccccc1NC(=O)CSc1ccc(-c2sc(C)nc2C)nn1 | 11.7
40 | Cc1cc(C(=O)N/N=C/C=C/c2ccccc2)c(C)o1 | 12
41 | CC(=O)N1CCN(Cc2nc3ccc(Cl)cc3n2CCO)CC1 | 15.9
42 | O=C(Nc1ccc(Cl)c(C(F)(F)F)c1)N1CCCC(O)C1 (centres unmarked) | 12.5
43 | O=C(COC(=O)CCc1nc2ccccc2s1)Nc1ccc(S(=O)(=O)N2CCOCC2)cc1 | 8.92
44 | CNC[C@H](O)c1ccc(O)c(O)c1.O=C(O)C(O)C(O)C(=O)O | 12.2
45 | COc1ccc(NS(=O)(=O)c2cc(NC(=O)/C=C/c3ccccc3OC)ccc2N2CCCCC2)cc1 | 15.5
46 | Oc1ccc[n+](CC(O)c2ccccc2)c1.[Br-] (centres unmarked) | 9.33

Row | Compound | hERG current change (%, negative = inhibition) at 1uM [%]
47 | Cc1cc(OCC(=O)NCc2ccncc2)c2c3c(c(=O)oc2c1)CCC3 | 6.31
48 | Cc1ccccc1Nc1nnc(C)c(=O)n1N | 3.3
49 | Brc1cccc(OCCN2CCc3ccccc3C2)c1.Cl | 12.1
50 | COc1cccc(C(=O)Nc2ccc(C(=O)NCC3CCCO3)cc2)c1 (centres unmarked) | 13.7
51 | O=C(O)c1cccc(C(=O)O)c1Br | 7.89
52 | CC1=C(OC(=O)c2ccccc2)C(C)(C)C(c2ccccc2)OC1=O (centres unmarked) | -3.15
53 | COc1cc(-c2nnc(-c3ccncc3)o2)ccc1OCc1ccccc1 | 10.8
54 | Cc1ccc(S(=O)(=O)N2CCOCC2)cc1NC(=O)Cn1cc(C(F)(F)F)cc(Cl)c1=O | 12.1
55 | CN(C)S(=O)(=O)c1ccc(Cl)c(NC(=O)COc2ccccc2[N+](=O)[O-])c1 | -3.2
56 | COCc1[nH]nc2c1C(c1ccsc1)C(C#N)=C(N)O2 (centres unmarked) | 7.89
57 | CC(C)c1nc(NCCO)c(C#N)c2c1CCCC2 | 5.98
58 | COCCNC(=O)c1ccccc1NC(=O)c1ccccc1N(C)S(C)(=O)=O | 12.8
59 | Cn1nc(-c2ccccc2)cc1NC(=O)c1ccc(Cl)cc1 | 5.9
60 | c1ccc(OCCSc2nc3ccccc3[nH]2)cc1 | 13.5
61 | NS(=O)(=O)c1ccc(CCNC(=O)c2cc3ccccc3s2)cc1 | 11.7
62 | COc1ccc(NC(=O)Nc2nnc(C(C)(C)C)s2)cc1 | -0.619
63 | CCOC(=O)N1CCN(S(=O)(=O)c2cc(Br)cc3c2N(C(=O)C2CC2)CC3)CC1 | 6.15
64 | Cc1cc(C(=O)CN2C(=O)c3ccccc3C2=O)c(C)n1C1CC1 | 3.7
65 | CCOc1nc(SCCOc2ccccc2)nc(N(C)C)n1 | 5.26
66 | COc1ccc(OCC(=O)NC(=S)Nc2ccc(S(=O)(=O)Nc3cc(OC)nc(OC)n3)cc2)cc1 | 5.34
67 | CC12CCC(C(=O)Nc3ccc4c(c3)OCCO4)(OC1=O)C2(C)C (centres unmarked) | 9.15
68 | Cc1ccc2[nH]c3c(=O)n(CC(=O)NCCCN4CCN(c5ccc(F)cc5)CC4)ncc3c2c1 | 21.6
69 | Cc1ccc(Nc2nc(CSc3n[nH]c(N)n3)cs2)cc1 | 10.6

Row | Compound | hERG current change (%, negative = inhibition) at 1uM [%]
70 | C/C(CCc1c[nH]c2ccccc12)=N\O | 7.1
71 | COc1ccc(CNC(=O)/C(C#N)=C2\N=C(NC(=O)c3cccs3)c3ccccc32)cc1 | 7.18
72 | Cc1ccc(SC(CC(=O)c2ccc(C)cc2)C(=O)O)cc1 (centres unmarked) | 9.09
73 | COc1ccc(CN(C(=O)c2ccc(-c3ccccc3)[nH]2)C(C(=O)NCC2CCCO2)c2ccc(C)o2)cc1 (centres unmarked) | -8.42
74 | COc1ccc(-c2noc(CCCc3ccccc3)n2)cc1OC | 5.83
75 | CCCCOC(=O)CCc1n[nH]c(=O)[nH]c1=O | 0.761
76 | COc1ccc(Nc2nc(-c3cc4cccc(OC)c4oc3=O)cs2)cc1 | 14
77 | O=C(NNC(=O)c1ccco1)c1ccc(NS(=O)(=O)c2cccs2)cc1 | 12.4
78 | O=C(OCC(=O)N(C1CCCCC1)C1CCCCC1)c1ccccc1O | 9.95
79 | O=C(O)c1cccc2c1C(=O)c1ccc(N3CCCCC3)cc1S2(=O)=O | 15.4
80 | COc1ccc(C(=O)NCc2nnc(SCC(=O)Nc3nc4ccccc4s3)o2)cc1 | 12
81 | Cc1cc(C)n(-c2cc(C(=O)O)cc(C(=O)O)c2)n1 | 2.26
82 | COc1ccc(Cl)cc1NCC(=O)Nc1ccc(OC)c(S(=O)(=O)N2CCCCC2)c1 | -1.65
83 | COc1ccc(C(=O)NC(CC(=O)O)c2cc([N+](=O)[O-])ccc2Cl)cc1 (centres unmarked) | 23.2
84 | COc1ccc(N=Nc2ccc(N)nc2N)cc1 | 14.7
85 | O=C(O)COc1ccc(NC(=O)c2ccc(NC(=O)c3ccco3)cc2)cc1 | 12.7
86 | CCC(=O)NC(C)c1cc(Cl)c2ccccc2c1O (centres unmarked) | -0.299
87 | CCOc1ccccc1OCCCC(=O)N1CCN(S(=O)(=O)c2cccc(F)c2)CC1 | 10.4
88 | O=C(c1cc2sccc2n1Cc1ccc(F)cc1)N1CCCc2ccccc21 | 16.2
89 | O=S(=O)(c1ccc(NC2CCCc3ccccc32)nc1)N1CCOCC1 (centres unmarked) | 7.71
